Results published in the supplement of paper PMC3334620.
The full ranking holds about 33,000 sequences; the median of “E-score (-0.5 to 0.5)” is about -0.054, and the highest 2% start at about 0.35. The list shows a part of the results.

The sequences below were run against T1, Stb5 (UniProt P38699) (assay: PBM E-score (8-mer binding enrichment) (E-score (-0.5 to 0.5)); higher = stronger / more preferred TF binding; most listed sequences are background and not binding sites). Conditions: protein concentration: 200 nM; construct: GST-full length.
T1 sequence: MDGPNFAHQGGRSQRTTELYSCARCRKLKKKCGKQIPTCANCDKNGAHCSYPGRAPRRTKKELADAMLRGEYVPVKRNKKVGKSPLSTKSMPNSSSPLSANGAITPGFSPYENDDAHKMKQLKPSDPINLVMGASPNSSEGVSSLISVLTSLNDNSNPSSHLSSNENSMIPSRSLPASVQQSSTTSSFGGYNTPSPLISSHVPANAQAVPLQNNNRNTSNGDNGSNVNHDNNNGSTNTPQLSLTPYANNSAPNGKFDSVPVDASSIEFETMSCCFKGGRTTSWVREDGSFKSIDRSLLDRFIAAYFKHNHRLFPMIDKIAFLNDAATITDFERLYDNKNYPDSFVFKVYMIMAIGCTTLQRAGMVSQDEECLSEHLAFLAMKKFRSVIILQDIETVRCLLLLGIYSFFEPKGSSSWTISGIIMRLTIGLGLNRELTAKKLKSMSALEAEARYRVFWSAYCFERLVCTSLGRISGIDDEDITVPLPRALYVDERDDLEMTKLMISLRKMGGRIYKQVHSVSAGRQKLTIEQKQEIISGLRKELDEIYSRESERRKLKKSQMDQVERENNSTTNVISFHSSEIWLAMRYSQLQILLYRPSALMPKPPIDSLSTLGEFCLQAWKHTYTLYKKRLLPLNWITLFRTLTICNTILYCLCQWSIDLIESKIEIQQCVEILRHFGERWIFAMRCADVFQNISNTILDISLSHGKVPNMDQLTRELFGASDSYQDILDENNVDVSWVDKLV
Outline: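 Detection of bound protein used fluorescent anti-GST, with scans normalised by masliner. The proteins were GST-tagged yeast transcription factors applied at about 100-200 nM to universal all-10-mer Agilent arrays made double-stranded by primer extension. Each ungapped eight-base word, pooled with its reverse complement, was scored with an E-score from the Universal PBM Analysis Suite.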

Sequence | PBM E-score
GAACGAGA | -0.0537
ACCGCGCA | 0.254
TATGTAAA | 0.0251
ATCATCAG | -0.123
CCGGCGCG | 0.305
AACAAGCA | 0.0225
CGGTTGGA | -0.0239
CCGCTTCG | 0.307
AGTATCAA | -0.153
ATTGCAGG | -0.168
AGATGGTG | -0.0983
ATTGAAAT | -0.0501
TTTACAAA | -0.221
ACCTCATG | -0.0767
GCCGCAGC | 0.117
GGAGAATA | 0.142
GCGGGTGA | 0.109
GTTTTAAA | 0.0954
CAGAAGCG | -0.0546
CGTGCGGC | 0.267
ACCGTAGC | 0.0274
GTAATTAC | 0.184
GTGTCCAA | -0.144
TAGTTGCA | 0.0111
GATATTTA | 0.213

Sequence | PBM E-score
CGTCAACC | 0.00466
CAGGGAGG | -0.271
CCACGACA | 0.0875
CTGTTATC | -0.103
ACGCTGGA | -0.0583
ACCTTTTC | -0.236
TCTAAAAA | -0.0239
CTGCAGTA | -0.119
GTTTGACA | -0.139
TGAAAGAA | -0.0981
CCCGCCGC | 0.347
CGGGTAGA | -0.0768
AAGGGGAG | -0.137
CATCACCA | -0.197
CCTCCACG | 0.00689
ATTTGCGA | -0.238
ACATAACG | 0.123
CCCCGTGC | 0.375
CCTTTATA | 0.197
CGCGTACC | -0.0838
TACGACAA | -0.132
ATCGCGGA | 0.0956
AGCCTTTA | -0.104
GTGCGAAC | 0.0102
CTACAGTC | -0.0953

Sequence | PBM E-score
ACCACTCC | 0.0502
ACAGGTAT | -0.159
AGAAGATG | -0.239
CCATGTTC | -0.154
AGATCCGG | 0.322
AAAAGAAT | 0.0457
GACGCGAA | -0.182
ACGCACGT | -0.00612
ACGATAGA | -0.27
CCACCAAC | 0.0503
TAAAGACA | -0.0735
GAATGCTC | -0.156
CGCCTCTC | -0.217
CAGGCTGA | -0.209
CTCATAAC | -0.0443
ATGACAAT | -0.289
ACCGGCGT | 0.365
ATGAATGC | 0.0342
TCGCTACA | -0.28
TCTCGTAA | -0.0135
GTATTCAC | 0.135
ATGCTACG | 0.0298
AAACGTAC | -0.209
CCCAGTCG | -0.0165
ATACGTAG | -0.0629

Sequence | PBM E-score
GTTCTGCA | -0.0855
AAATTTAA | -0.0122
GAGCATAA | -0.00752
AATTTCTG | -0.236
ACTCAGCC | 0.0126
CCGTGCTA | 0.119
ACGAGCTG | -0.291
CCATAGGC | 0.129
CAAGCGCA | -0.12
CTTCTGAC | -0.0933
ATCACAGG | -0.257
ACATGAAC | -0.0778
TGCTCCAA | -0.376
ATCCTGCG | 0.0166
CATTATTC | -0.0342
TCCTTCCA | -0.259
GGGAAGAA | -0.125
ATAGGTCG | 0.157
ACACAAGG | -0.19
CATCGTCG | 0.059
ACTGCACA | -0.194
ATGCCCAT | -0.348
CGAAGACC | 0.0719
CTTTGAGC | -0.102
AGTCGCCA | -0.117

Sequence | PBM E-score
CTCTTAAG | 0.035
ATCCCCGG | 0.379
CGCAAAAC | 0.15
ACTGCACT | -0.244
CACGAATG | -0.143
CTTGAGAC | 0.141
CATGACCG | 0.0934
AGACCTCT | -0.194
ACGCCTTC | -0.142
ATAGGTAA | -0.117
AGTTAATA | 0.0563
AGACAGCT | -0.365
CTCACCGC | 0.164
GCACCCGC | 0.193
CGAATCGC | -0.00885
AGGGTGAT | -0.298
ACGCTCAC | -0.0611
GTCAGATA | -0.0727
GATACAGC | -0.0161
CTGATTGC | -0.0848
TCTTAAGA | 0.0359
CTCGGAGA | 0.136
ATATCTAA | -0.197
AAATCGGG | 0.212
CTCCAATC | 0.0155

Sequence | PBM E-score
ATATTGTC | 0.132
CAGACACG | -0.0377
GCCCAACC | -0.196
AACGTGTG | -0.338
ATGCTAAG | -0.0748
AAGAGCCT | -0.249
CTATGGGA | -0.0168
AAGTGCCC | 0.0216
ACCTTTCA | -0.118
ACGCGGCG | 0.304
GACGATCC | 0.00367
GTCCTAGA | -0.078
TGACGTCA | 0.158
AAACCATG | -0.102
ATCATAGC | -0.0226
AGAACAGC | 0.0171
GAACTACC | 0.0225
CTAATCTA | 0.0861
CTGCTGAC | -0.189
GAACACGC | 0.0746
AATAATGG | 0.00766
TAACTAGA | 0.04
CAATCACG | -0.027
TGTAAGAA | 0.0991
ATAAACAG | 0.00266

Sequence | PBM E-score
CGGTTATC | 0.175
GGTAGATA | 0.0311
AACCCGCT | 0.222
ACTGAATA | -0.137
CGAGGTAA | -0.0124
TCCGGCAA | 0.258
CTTAGGTA | -0.0714
AACGACTA | -0.107
AGAGACCA | -0.325
ATGATACA | -0.296
AAATACTT | -0.0954
GGCGTAAC | 0.136
ACATACGC | 0.0346
ACGCACTC | 0.00586
AGTAGCAT | -0.127
AAACTTGA | -0.106
AAGACTCA | -0.283
AGTTGCAA | 0.0517
GCCCCCCA | -0.279
ATGCTGCA | -0.108
ACTTTTCT | -0.119
GCTACAGC | -0.13
ACTGCCGA | 0.242
CACACAAC | -0.151
AAACAGTT | -0.00596

Sequence | PBM E-score
GATTGGCC | -0.0793
ATCCGTTA | 0.197
AGTAATCA | -0.045
AGGATGCA | -0.138
GAACGCAC | 0.0172
ACGTCCTA | -0.154
CAAAGACA | -0.129
TATTCGGA | 0.0697
CGACCGAC | 0.271
TGGGCGAA | -0.132
GAACCGGA | 0.302
ATATCCGG | 0.294
CCTGGTTA | -0.327
ACAAATTG | -0.183
TCTCAGCA | -0.253
GTACGCGA | -0.24
GCTATCAC | -0.00176
TGGCCACA | -0.243
GGACCTGA | 0.0125
AAAGCTAA | -0.114
ATGCAGGG | -0.207
AGGTCCGC | 0.425
CGATCGCA | 0.0733
CGCTGGGC | 0.106
ACAAATAA | 0.141

Sequence | PBM E-score
CCACTCGC | -0.0357
TACGCACA | -0.373
CAGTCGGG | 0.297
GCAATTAA | 0.189
AAGGAGAG | -0.239
CAAACATA | -0.269
ACGTGATC | 0.0619
ATGTTCGG | 0.0516
AGACCAAA | -0.13
CTATACTA | -0.0625
CTTCGTAC | -0.00604
ACCTAACT | -0.0158
AGGTGAAC | -0.145
GAATCCGA | 0.209
GATGTGGA | 0.0512
CTACAAAC | -0.0193
GACCCCCA | -0.201
CCTCAACG | -0.0978
ATCATTCC | -0.0558
